Experimental data taken from a compilation of properties of binary mixtures (doi:10.1016/j.molliq.2020.114841).
The densities may have been worked out from excess volumes.

Assay: xn = mol fraction of the nth substance listed
Details: 101.3 kPa

SMILES | mass density (293.15 K, x2 = 0) | mass density (303.15 K, x2 = 0) | mass density (313.15 K, x2 = 0) | mass density (323.15 K, x2 = 0) | mass density (293.15 K, x1 = 0.0989) | mass density (293.15 K, x1 = 0.2776) | mass density (293.15 K, x1 = 0.3971) | mass density (293.15 K, x1 = 0.5029) | mass density (293.15 K, x1 = 0.721) | mass density (293.15 K, x1 = 1) | mass density (303.15 K, x1 = 0.0989) | mass density (303.15 K, x1 = 0.1981) | mass density (303.15 K, x1 = 0.3971) | mass density (303.15 K, x1 = 0.597) | mass density (303.15 K, x1 = 0.798) | mass density (303.15 K, x1 = 1) | mass density (313.15 K, x1 = 0.0989) | mass density (313.15 K, x1 = 0.1981) | mass density (313.15 K, x1 = 0.2776) | mass density (313.15 K, x1 = 0.3971) | further results
CS(C)=O + CCOCC[n+]1ccn(CCC#N)c1.O=S(=O)([N-]S(=O)(=O)C(F)(F)F)C(F)(F)F | 1102.3 kg/m3 | 1092.3 kg/m3 | 1082.4 kg/m3 | 1072.5 kg/m3 | – | – | – | – | – | – | – | – | – | – | – | – | – | – | – | – | –
CS(C)=O + COCCOCCn1cc[n+](CCC#N)c1.O=S(=O)([N-]S(=O)(=O)C(F)(F)F)C(F)(F)F | 1102.3 kg/m3 | 1092.3 kg/m3 | 1082.4 kg/m3 | 1072.5 kg/m3 | – | – | – | – | – | – | – | – | – | – | – | – | – | – | – | – | –
CCOCC[n+]1ccn(CCC#N)c1.O=S(=O)([N-]S(=O)(=O)C(F)(F)F)C(F)(F)F + CS(C)=O | – | – | – | – | 1199.8 kg/m3 | 1299.3 kg/m3 | 1338.7 kg/m3 | 1367.5 kg/m3 | 1414.8 kg/m3 | 1463 kg/m3 | 1195.9 kg/m3 | 1257 kg/m3 | 1332.5 kg/m3 | 1382 kg/m3 | 1420.7 kg/m3 | 1454 kg/m3 | 1186.8 kg/m3 | 1247.9 kg/m3 | 1282.9 kg/m3 | 1323.1 kg/m3 | mass density (293.15 K, x1 = 0.1981): 1261.8 kg/m3; mass density (303.15 K, x1 = 0.2776): 1292.2 kg/m3; mass density (303.15 K, x1 = 0.5029): 1360.6 kg/m3; mass density (303.15 K, x1 = 0.89): 1436.5 kg/m3; mass density (313.15 K, x1 = 0.5029): 1351.2 kg/m3; mass density (313.15 K, x1 = 0.597): 1372.5 kg/m3; mass density (313.15 K, x1 = 0.721): 1397 kg/m3; mass density (313.15 K, x1 = 0.798): 1410.9 kg/m3; mass density (313.15 K, x1 = 0.89): 1426.7 kg/m3; mass density (313.15 K, x1 = 1): 1444 kg/m3; mass density (323.15 K, x1 = 0.2776): 1277.3 kg/m3; mass density (323.15 K, x1 = 0.597): 1363.9 kg/m3; mass density (323.15 K, x1 = 0.798): 1402.2 kg/m3; mass density (323.15 K, x1 = 0.89): 1417.8 kg/m3; mass density (323.15 K, x1 = 1): 1435 kg/m3
COCCOCCn1cc[n+](CCC#N)c1.O=S(=O)([N-]S(=O)(=O)C(F)(F)F)C(F)(F)F + CS(C)=O | – | – | – | – | 1212.2 kg/m3 | 1317.1 kg/m3 | 1355.7 kg/m3 | 1381.3 kg/m3 | 1420.4 kg/m3 | 1456 kg/m3 | 1208.3 kg/m3 | 1272.8 kg/m3 | 1346.9 kg/m3 | 1390.9 kg/m3 | 1422.3 kg/m3 | 1447 kg/m3 | 1199.7 kg/m3 | 1264.1 kg/m3 | 1299 kg/m3 | 1338.6 kg/m3 | mass density (293.15 K, x1 = 0.597): 1399.9 kg/m3; mass density (293.15 K, x1 = 0.798): 1431.4 kg/m3; mass density (293.15 K, x1 = 0.89): 1443.4 kg/m3; mass density (303.15 K, x1 = 0.721): 1411.2 kg/m3; mass density (313.15 K, x1 = 0.5029): 1364.2 kg/m3; mass density (313.15 K, x1 = 0.597): 1382.4 kg/m3; mass density (313.15 K, x1 = 0.721): 1402.6 kg/m3; mass density (313.15 K, x1 = 1): 1438 kg/m3; mass density (323.15 K, x1 = 0.0989): 1190.5 kg/m3; mass density (323.15 K, x1 = 0.2776): 1290.2 kg/m3; mass density (323.15 K, x1 = 0.3971): 1329.9 kg/m3; mass density (323.15 K, x1 = 0.5029): 1356 kg/m3; mass density (323.15 K, x1 = 0.597): 1374.2 kg/m3; mass density (323.15 K, x1 = 0.721): 1393.9 kg/m3; mass density (323.15 K, x1 = 0.89): 1416.2 kg/m3; mass density (323.15 K, x1 = 1): 1428 kg/m3
